# Results published in the supplement of paper PMC3694890.
# ± gives the uncertainty stated by the source. Some of the results follow. A small y stands for phosphotyrosine.
# B1: P85A_688/A1 (peptide)
# chain: ySSLKE
# B2: P85B_467/A1 (peptide)
# chain: yTRTSQ
# B3: P85B_605/A1 (peptide)
# chain: yALMED
# B4: PA24A_456/A1 (peptide)
# chain: yQSDNQ
# B5: PA24A_535/A1 (peptide)
# chain: yEPLDV
# B6: PDGFRA_1018/A1 (peptide)
# chain: yIIPLP
# B7: PDGFRA_720/A1 (peptide)
# chain: yVILSF
# B8: PDGFRA_731/A1 (peptide)
# chain: yMDMKQ
# B9: PDGFRA_742/A1 (peptide)
# chain: yVPMLE
# B10: AT1A2_539/A1 (peptide)
# chain: yMELGG
# B11: PDGFRA_754/A1 (peptide)
# chain: ySDIQR
# B12: PDGFRA_762/A1 (peptide)
# chain: yDRPAS
# B13: PDGFRA_768/A1 (peptide)
# chain: yKKKSM
# B14: PDGFRA_849/A1 (peptide)
# chain: yVSKGS
# B15: PDGFRA_988/A1 (peptide)
# chain: yIGVTY
# B16: PDGFRB_1009/A1 (peptide)
# chain: yTAVQP
# B17: PDGFRB_562/A1 (peptide)
# chain: yEIRWK
# Target: GRB2 (endogenous complexes from cell lysate), P62993
# Assay: GRB2 complex binding differential signal (pY peptide minus Ala control peptide) (fluorescence intensity units); higher = stronger GRB2 complex binding
# Conditions: MCF7
# 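Also: phosphopeptide probes on the chip at 1–4 µM, lysate proteins bound in 20 mM Tris pH 7.0 buffer with 140 mM NaCl, 1% Triton X-100 and 5% glycerol.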
row,Binder,GRB2 complex binding differential signal
1,B1,1120 ± 290
2,B2,4530 ± 1100
3,B3,219 ± 260
4,B4,1330 ± 280
5,B5,766 ± 1200
6,B6,3820 ± 3800
7,B7,238 ± 310
8,B8,655 ± 490
9,B9,64 ± 460
10,B10,328 ± 360
11,B11,1710 ± 610
12,B12,5630 ± 1200
13,B13,43.9 ± 370
14,B14,1200 ± 230
15,B15,40.9 ± 310
16,B16,3930 ± 800
17,B17,186 ± 140

# Same assay, conditions: MCF10A
row,Binder,GRB2 complex binding differential signal
1,B1,1680 ± 640
2,B2,3350 ± 420
3,B3,105 ± 230
4,B4,1740 ± 330
5,B5,1440 ± 330
6,B6,5570 ± 1300
7,B7,98.9 ± 160
8,B8,659 ± 220
9,B9,432 ± 190
10,B10,278 ± 190
11,B11,1080 ± 400
12,B12,4890 ± 1500
13,B13,205 ± 400
14,B14,3210 ± 290
15,B15,46.4 ± 230
16,B16,3080 ± 1100
17,B17,-39.1 ± 940

# Same assay, conditions: MDA-MB-231
row,Binder,GRB2 complex binding differential signal
1,B1,822 ± 330
2,B2,1150 ± 330
3,B3,400 ± 330
4,B4,993 ± 700
5,B5,984 ± 980
6,B6,3990 ± 560
7,B7,862 ± 320
8,B8,810 ± 370
9,B9,1030 ± 510
10,B10,352 ± 280
11,B11,720 ± 320
12,B12,1410 ± 380
13,B13,547 ± 300
14,B14,1040 ± 670
15,B15,1240 ± 350
16,B16,1860 ± 680
17,B17,550 ± 290

# Same assay, conditions: T47D
row,Binder,GRB2 complex binding differential signal
1,B1,188 ± 930
2,B2,-323 ± 860
3,B4,1080 ± 1200
4,B5,3050 ± 1800
5,B6,4120 ± 1200
6,B7,1650 ± 1300
7,B8,1290 ± 1400
8,B9,1600 ± 1000
9,B10,180 ± 1000
10,B11,1790 ± 1400
11,B12,1920 ± 1300
12,B13,775 ± 1200
13,B14,2900 ± 1300
14,B15,4250 ± 1200
15,B16,2360 ± 1500
16,B17,693 ± 2700
